Assay results from PubChem BioAssay (NCI).
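Results reflect a 48-hour exposure of cells in 96-well plates to compound at five concentrations. GI50 marks 50% less growth. TGI marks complete inhibition of growth.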

Tested on: NCI-H322M lung
Assay: NCI tumour cell line growth inhibition, 48 h

Compound	GI50 [µM]	TGI [µM]
CCN1CCN(S(=O)(=O)c2oc(-c3ccc(Cl)cc3)nc2C#N)CC1	16.8	30.9
CCCCCc1ccc(S(=O)(=O)Nc2cc(-c3csc(NC(=O)CN4CCN(C)CC4)n3)ccc2N2CCN(C)CC2)cc1	1.22	3.47
